# Data published in PubChem BioAssay AID1461 (National Center for Advancing Translational Sciences (NCATS), 2008).
# The whole screen tested about 220,000 compounds, of which about 2,300 (1%) were called active. Not shown: some 6% with an inconclusive outcome. Calls follow the shape of the dose curve; as a rule, active = well fitted inhibition curve with a large enough effect; inconclusive = small, poorly fitted or top-dose-only effect, or effect the other way; inactive = no such curve, though single readings can be large or run the other way. The entries are a selection whose mix differs from that of the whole data set.
# Biological target: Neuropeptide S receptor (Homo sapiens) (UniProt Q6W5P4)
# Sequence of UniProt Q6W5P4 (Q6W5P4 whole entry, looked up): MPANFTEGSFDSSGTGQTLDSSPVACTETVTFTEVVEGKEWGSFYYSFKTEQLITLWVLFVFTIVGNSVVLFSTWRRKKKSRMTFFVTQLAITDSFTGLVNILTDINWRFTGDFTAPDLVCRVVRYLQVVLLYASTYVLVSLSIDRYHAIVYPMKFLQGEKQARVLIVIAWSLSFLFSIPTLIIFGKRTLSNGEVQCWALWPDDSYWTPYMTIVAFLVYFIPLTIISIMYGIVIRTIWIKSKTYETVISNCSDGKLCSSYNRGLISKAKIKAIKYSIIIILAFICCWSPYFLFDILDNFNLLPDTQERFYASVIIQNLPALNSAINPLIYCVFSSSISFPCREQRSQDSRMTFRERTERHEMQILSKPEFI
# Assay: qHTS Assay for Antagonists of the Neuropeptide S Receptor: cAMP Signal Transduction; also: nearly all actives have a fitted effect of over 50% in size
# Conditions: CHO-NPSR cells, cAMP TR-FRET, antagonist mode; series mostly up to 38.3 µM; activity change, negative = inhibition: at the top concentration
# Source text: NIH Chemical Genomics Center [NCGC] NIH Molecular Libraries Probe Production centers Network [MLPCN] MLPCN Grant: X01-DA026210-01 Assay Submitter (PI): Heilig, Markus Alexander NCGC Assay Overview: Neuropeptide S receptor (NPSR), previously known as GPR154, is a recently de-orphanized G protein coupled receptor. Its endogenous ligand is the 20 amino acids peptide Neuropeptide S (NPS). […] NPS and its receptor are found in various tissues. Specifically they are highly expressed in brain areas that have been implicated in modulation of arousal, stress and anxiety. Central administration of NPS in mice produces an unusual profile of activity by inducing wakefulness and arousal, while at the same time suppressing anxiety. Therefore, NPSR may represent a novel drug target for the treatment of sleep and anxiety disorders. To identify NPSR antagonists, we developed a cell-based cAMP assay. NPS can stimulate the production of cAMP in Chinese hamster ovary cells stably expressing NPS receptor. This change in intracellular cAMP level can be detected by a homogeneous LANCE cAMP assay based on the TR-FRET (time resolved fluorescence resonance energy transfer) between a europium-labeled cAMP tracer complex and a cAMP-specific antibody labeled with Alexa Fluor 647. The europium-labeled cAMP tracer complex is formed by the tight interaction between Biotin-cAMP (b-cAMP) and streptavidin labeled with Europium-W8044 chelate (Eu-SA). Light pulse at 320 nm excites the europium of the cAMP tracer and the energy emitted is transferred to the Alexa molecule bound to the cAMP antibody, generating a TR-FRET signal at 665 nm. Residual energy from the europium will produce a light at 620 nm. The native unlabeled cAMP from cell lysates competes with the europium-cAMP tracer for antibody binding and reversely reduces the emission signal of Alexa by interrupting FRET between the two labeled molecules. Both emission signals from the FRET donor (620 nm) and the acceptor (665 nm) can be detected by a plate reader in the TRF mode. Expression of result in fluorescence ratio (665 nm/620 nm) helps to normalize differences due to cell density and reagent dispensing. This assay was successfully optimized to a 1536-well plate format.
# NCGC Assay Protocol Summary: A Chinese hamster ovary (CHO) cell line stably expressing the NPS receptor (CHO-NPSR) was obtained from Dr. Heilig lab at NIAAA and maintained in F-12 Kaighn's media (Invitrogen, Carlsbad, CA, 21127) supplemented with 10 % FBS, 100 units/ml penicillin, 100 ug/ml streptomycin and 250 ug/ml geneticin at 37C, 5% CO2 in a humidified atmosphere. Before the assay, aliquots of cells were frozen and stored at -135C. The assay was performed in 1536-well format. Data are reported for both the ratio of the two emission wavelengths, and also for the component 'donor' channel, Em2=620. Data were normalized to the controls for basal activity (DMSO only) and 100% inhibition (No NPS control). IC50 values were determined from concentration-response data modeled with the standard Hill equation. NPS 1536-well assay protocol: (1) Fresh or frozen CHO-NPSR cells were suspended in F-12 Kaighn's media supplemented with 10 % FBS, 100 units/ml penicillin and 100 ug/ml streptomycin. Cells were plated at 4 ul/well (1200 cells) to white, tissue culture treated 1536-well plates, and then cultured at 37C, 5 % CO2 for 16 to 30 hours. (2) Add 23 nl/well of compound in DMSO solution. The final titration for each compound was between 0.6 nM and 46 uM. (3) Add 1 ul of stimulation reagent (1X HBSS buffer, 5 mM HEPES, 0.1% BSA, 500 uM RO-201724 (Sigma-Aldrich, B8279), 1.5% Alexa 647-labeled anti-cAMP antibody (from Perkin Elmer), 100 nM NPS) (4) Incubation at 37C, 5 % CO2 for 60 min. (5) Add 1 ul/well detection reagent. Detection reagent was prepared by adding biotin labeled cAMP (4%), streptavidin labeled with Europium-W8044 chelate (1.33%) and TritonX-100 (1%) to detection buffer. […]
# % is scaled to controls: 0 for no effect and ±100 for the full control effect; potency is read from the fitted curve at half-maximal effect.
SMILES,"activity change, negative = inhibition",Potency
CC(=O)n1cc([C@H]2C=C(C(=O)N3CCN(Cc4ccc5c(c4)OCO5)CC3)O[C@@H](OCc3ccc(CO)cc3)C2)c2ccccc21,inactive: 53.1%,–
CC1CC2C3CCC4=CC(=O)C=CC4(C)C3(F)C(O)CC2(C)C1(O)C(=O)CO (stereo not given),inactive: 27.7%,–
O=C(c1cccs1)N1CCc2c([nH]c3ccccc23)C1c1ccc(Cl)cc1 (stereo not given),–,active: 10 µM
CCN1C/C(=C\c2cccc([N+](=O)[O-])c2)C(=O)/C(=C/c2cccc([N+](=O)[O-])c2)C1,inactive: -49.7%,–
O=C(CNC(=O)/C(=C/c1ccccc1)NC(=O)c1ccc(Br)cc1)OCc1ccccc1,inactive: 1.43%,–
C[N+](C)(C)CCCCCC[N+](C)(C)C,inactive: -5.72% [at 46.1 µM],–
Cc1oncc1C(=O)Nc1ccc(C(F)(F)F)cc1,inactive: 3.6%,–
CSc1ccc2c(c1)C(N1CCN(C)CC1)Cc1ccccc1S2 (stereo not given),inactive: 10.2% [at 46.1 µM],–
Cc1cc(C(C)(C)C)c(O)c(C)c1CC1=NCCN1,inactive: 3.91% [at 46.1 µM],–
CN(C)CCCN1c2ccccc2Sc2ccccc21,inactive: -24.1% [at 46.1 µM],–
Nc1ccn([C@@H]2O[C@H](CO)[C@@H](O)C2O)c(=O)n1 (stereo not given in full),inactive: 15.9%,–
CC[C@H](NC(=O)c1c(C)c(-c2ccccc2)nc2ccccc12)c1ccccc1,inactive: -51.5%,–
CCCC1O[C@@H]2C[C@H]3[C@@H]4CCC5=CC(=O)C=C[C@]5(C)[C@H]4[C@@H](O)C[C@]3(C)[C@]2(C(=O)CO)O1 (stereo not given in full),inactive: -22.7%,–
CC(C)c1ccc(-c2c(C#N)c(N)nc(SCC(=O)N3CCCCC3)c2C#N)cc1,–,active: 10 µM
CCO[C@H]1OC(C(=O)N2CCN(Cc3ccc4c(c3)OCO4)CC2)=C[C@@H](C2CCCCC2)[C@@H]1CCCO,inactive: 55.6%,–
CCCCCC(O)c1cccc(OCc2ccc3ccccc3n2)c1 (stereo not given),inactive: -34.9%,–
CCCCNc1cc(C(=O)O)cc(S(N)(=O)=O)c1Oc1ccccc1,inactive: -53.6%,–
CCN1/C(=C\c2ccc3cc(C)ccc3[n+]2CC)Sc2cc(C)c(C)cc21,inactive: -25.2%,–
NC(=O)OCC(COC(N)=O)c1ccccc1,inactive: -56.6%,–
C#Cc1ccc([C@H]2C=C(C(=O)N3CCN(Cc4ccc5c(c4)OCO5)CC3)O[C@@H](OCC)[C@@H]2CCCO)cc1,inactive: 59.4%,–

SMILES,"activity change, negative = inhibition",Potency
CC(C)C[C@H](NC(=O)c1[nH]cnc1C(=O)N[C@H](C)c1ccccc1)C(=O)OCc1ccccc1,inactive: 54.2%,–
CC(C)OC(=O)C(C)(C)Oc1ccc(C(=O)c2ccc(Cl)cc2)cc1,inactive: -43.5%,–
O=C(NCc1nc2ccccc2[nH]1)C1=C[C@@H](c2ccc(Br)cc2)C[C@@H](OCc2ccc(CO)cc2)O1,inactive: 35.7%,–
COc1ccc(Cl)cc1-c1n[nH]c(=S)o1,–,active: 6.31 µM
C#CCNC(=O)C1=C[C@@H](c2csc3ccccc23)C[C@@H](OCc2ccc(CO)cc2)O1,inactive: 51.7%,–
CCOC(=O)c1cc2c(=O)n3ccccc3nc2n(CC(C)C)c1=NC(=O)c1c(-c2c(F)cccc2Cl)noc1C,–,active: 3.98 µM
COC(=O)C1=C(C)NC(C)=C([N+](=O)[O-])C1c1ccccc1C(F)(F)F (stereo not given),inactive: -24.4%,–
Oc1cc(O)c2c(c1)O[C@H](c1ccc(O)c(O)c1)[C@@H](O)C2,inactive: 5.96%,–
CCN(CC)CCOC(=O)C1(C2CCCCC2)CCCCC1,inactive: -7.48%,–
CCOC(=O)/C(=C\c1ccc([N+](=O)[O-])cc1)C(=O)c1cc(C(C)=O)c(Nc2ccccc2)s1,–,active: 7.94 µM
CN(C)CCCN1c2ccccc2Sc2ccc(C(F)(F)F)cc21,inactive: -0.483% [at 46.1 µM],–
CCSc1nc2ccccc2n1C(=O)/C=C/c1ccc(OC)c(OC)c1,inactive: -59%,–
O=C(C1=C[C@@H](c2coc3ccccc3c2=O)C[C@@H](OCCCCO)O1)N1CCN(Cc2ccccc2)CC1,inactive: 29.3%,–
CN1CCN(CC/C=C2/c3ccccc3Sc3ccc(S(=O)(=O)N(C)C)cc32)CC1,inactive: -54.7%,–
O=S(=O)(c1ccc2c(c1)C(=NO)c1cc(S(=O)(=O)N3CCCCC3)ccc1-2)N1CCCCC1,–,active: 2 µM
COc1ccc(/C(O)=C2/C(=O)C(=O)N(c3nc(C)c(C)s3)C2c2ccco2)cc1 (stereo not given),–,active: 10 µM
C[C@](N)(Cc1ccc(O)cc1)C(=O)O,inactive: -4.42% [at 46.1 µM],–
COc1ccc(C2Nc3ccc4ccccc4c3-c3c2c(=O)oc2ccccc32)cc1 (stereo not given),–,active: 7.94 µM
c1ccc(-c2nnc3sc(-c4csc5c4CCCC5)nn23)cc1,–,active: 10 µM
CC(/C=N/NC(=O)c1cccs1)=C\c1ccccc1,inactive: -23%,–
